B1: W7 (other)
chain: MGYPYDVPDYASLERMDARQA[about 80 residues not shown]QDVSGSRPAAPLIGAPANSEDTHLVDPKTDPSDSQTGLAEQCAGIRKRPATDDSSTQNKRANRTEENVSDGGGGGSGGGGSGGGGSVEDPAAGSSMEPSADWLATAAARGRVEEVRALLEAGALPNAPNSYGRRPIQVMMMGSARVAELLLLHGAEPNCADPATLTRPVHDAAREGFLDTLVVLHRAGARLDVRDAWGLPVDLAEELGHRDVARYLRAAAGGTRGSNHARIDAAEGPSDIPD
B2: W3 (other)
chain: [about 200 residues not shown]GGGGSGGGGSGGGGSEFCGRACARRLRRGESMQRAAGSSMEPSADWLATAAARGRVEEVRALLEAVALPNAPNSYGRRPIQVMMMGSARVAELLLLHGAEPNCADPATLTRPVHDAAREGFLDTLVVLHRAGARLDVRDAWGRLPVDLAEELGHRDVARYLRAAAGGTRGSNHARIDAAEGPSDIPD
B3: W5 (protein)
chain: MGYPYDVPDYADPAAGSSMEPSADWLATAAARGRVEEVRALLEAGALPNAPNSYGRRPIQVMMMGSARVAELLLLHGAEPNCADPATLTRPVHDAAREGFLDTLVVLHRAGARLDVRDAWGRLPVDLAEELGHRDVARYLRAAAGGTRGSNHARIDAAEGPSDIPDGGGGSGGGGSGGGGSV[about 200 residues not shown]

Target: CDK2/cyclin E complex (UniProt P24941; P24864)
Assay: in vitro kinase assay

| IC50 [nM] | Binder |
| --- | --- |
| 2.6 | B1 |
| 3 | B2 |
| 11 | B3 |

Target: CDK4/cyclin D1 complex (UniProt P11802 1-303; P24385)
Chain of UniProt P11802 (P11802 whole entry, chain 1 of 2): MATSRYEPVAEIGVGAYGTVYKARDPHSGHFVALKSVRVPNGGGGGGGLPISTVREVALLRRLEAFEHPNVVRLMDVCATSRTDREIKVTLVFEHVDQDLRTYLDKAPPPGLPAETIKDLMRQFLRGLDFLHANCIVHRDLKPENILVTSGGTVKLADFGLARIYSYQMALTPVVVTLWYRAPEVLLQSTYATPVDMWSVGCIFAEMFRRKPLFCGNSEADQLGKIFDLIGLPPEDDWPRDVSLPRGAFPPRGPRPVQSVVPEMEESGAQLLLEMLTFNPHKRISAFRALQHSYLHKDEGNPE
Chain of UniProt P11802 (P24385 whole entry, chain 2 of 2, further chain): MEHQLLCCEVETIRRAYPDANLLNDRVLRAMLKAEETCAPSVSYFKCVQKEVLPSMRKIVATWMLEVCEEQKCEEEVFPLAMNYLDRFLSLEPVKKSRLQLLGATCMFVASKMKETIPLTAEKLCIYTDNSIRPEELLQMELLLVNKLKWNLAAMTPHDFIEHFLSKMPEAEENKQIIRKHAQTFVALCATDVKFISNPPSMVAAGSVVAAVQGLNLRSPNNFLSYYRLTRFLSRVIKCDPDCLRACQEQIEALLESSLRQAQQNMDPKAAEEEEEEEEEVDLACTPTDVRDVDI
Assay: in vitro kinase assay

| IC50 [nM] | Binder |
| --- | --- |
| 16 | B1 |
| 17 | B2 |
| 44 | B3 |

Target: CDC2/cyclin B complex (UniProt P06493; P14635)
Chain of UniProt P06493 (P06493 whole entry, chain 1 of 2): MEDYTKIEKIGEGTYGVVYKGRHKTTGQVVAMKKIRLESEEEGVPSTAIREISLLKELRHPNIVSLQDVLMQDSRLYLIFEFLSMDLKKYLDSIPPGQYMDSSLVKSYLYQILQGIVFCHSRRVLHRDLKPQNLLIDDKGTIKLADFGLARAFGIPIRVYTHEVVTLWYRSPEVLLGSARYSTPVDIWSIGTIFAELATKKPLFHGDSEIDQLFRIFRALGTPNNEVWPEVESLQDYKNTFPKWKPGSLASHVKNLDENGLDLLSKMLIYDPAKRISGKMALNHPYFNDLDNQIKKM
Chain of UniProt P06493 (P14635 whole entry, chain 2 of 2, further chain): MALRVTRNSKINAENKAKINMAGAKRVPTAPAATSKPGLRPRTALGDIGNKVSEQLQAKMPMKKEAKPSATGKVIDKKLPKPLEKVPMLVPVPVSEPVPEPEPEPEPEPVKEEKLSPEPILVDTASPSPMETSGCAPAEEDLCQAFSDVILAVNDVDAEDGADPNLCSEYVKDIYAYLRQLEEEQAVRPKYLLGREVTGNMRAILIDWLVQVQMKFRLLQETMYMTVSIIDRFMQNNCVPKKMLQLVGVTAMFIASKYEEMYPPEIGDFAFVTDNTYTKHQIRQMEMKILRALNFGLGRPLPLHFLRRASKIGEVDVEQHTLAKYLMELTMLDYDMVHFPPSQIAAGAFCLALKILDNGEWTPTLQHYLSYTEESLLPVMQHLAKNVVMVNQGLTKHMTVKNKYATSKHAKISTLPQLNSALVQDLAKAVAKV
Assay: in vitro kinase assay

| IC50 [nM] | Binder |
| --- | --- |
| 9.2 | B1 |
| 18 | B2 |
| 18 | B3 |
